≈ marks a conversion by molar mass, not a printed value.
System: HRV2
Test: microbe, parasite or virus in culture
Conditions: Enterovirus, HRV2, HeLa, read-out: Rhinovirus MIC against HRV2 only

Row | Structure (SMILES) | EC50 [µg/mL]
1 | Cc1cc(CCCCCCCc2ccc(C3=NCCO3)cc2)on1 [6(g), 5-{7-[4-(4,5-Dihydro-2-oxazolyl)phenyl]heptyl}-3-methylisoxazole] | 0.06 (≈ 0.184 µM)
2 | Cc1cc(CCCCOc2ccc(C3=NCCO3)cc2)on1 [21 (b), 5-{4-[4-(4,5-Dihydro-2-oxazolyl)phenoxy]butyl}-3-methylisoxazole] | 0.5 (≈ 1.66 µM)
3 | Cc1cc(CCCCCCCOc2ccc(-c3ncco3)cc2)on1 [87(b), 3-Methyl-5-{7-[4-(2-oxazolyl)phenoxy]heptyl}isoxazole] | 0.4 (≈ 1.18 µM)
4 | Cc1cc(CCC2CCC(COc3ccc(C4=NCCO4)cc3)CC2)on1 (stereo not shown) [101 (b), 5-{2-[4-[[4-(4,5-Dihydro-2-oxazolyl)phenoxy]methyl]cyclohexyl]ethyl}-3-methylisoxazole] | 1.9 (≈ 5.16 µM)
5 | OCc1cc(CCCCCCCOc2ccc(C3=NCCO3)cc2)on1 [Example 11, 5-{7-[4-(4,5-Dihydro-2-oxazolyl)phenoxy]heptyl}-3-isoxazolemethanol] | 0.3 (≈ 0.837 µM)
6 | Cc1cc(C(O)CCCCCCOc2ccc(C3=NCCO3)cc2)on1 (stereo not drawn) [Example 12, α-{6-[4-(4,5-dihydro-2-oxazolyl)phenoxy]hexyl}-3-methyl-5-isoxazolemethanol] | 1.4 (≈ 3.91 µM)
7 | Cc1cc(CCCCCCCCOc2ccc(C3=NCCO3)cc2Cl)on1 [Example 22, 5-{8-[2-Chloro-4-(4,5-dihydro-2-oxazolyl)phenoxy]octyl}-3-methylisoxazole] | 0.4 (≈ 1.02 µM)
8 | Cc1cc(CCCCCCCc2ccc(C3=NC(CO)CO3)cc2)on1 (stereo not shown) [Example 25, 5-{7-[4-(4,5-Dihydro-4-hydroxymethyl-2-oxazolyl)phenyl]heptyl}-3-methylisoxazole] | 2.1 (≈ 5.89 µM)
9 | CC(=O)OCc1cc(CCCCCCCOc2ccc(C3=NCCO3)cc2)on1 [Example 28, 5-{7-[4-(4,5-Dihydro-2-oxazolyl)phenoxy]heptyl}-3-isoxazolemethanol acetate] | 0.1
10 | Cc1cc(CCCCCOc2cccc(C3=NCCO3)c2)on1 [Example 30, 5-{5-[3-(4,5-Dihydro-2-oxazolyl)phenoxy]pentyl}-3-methylisoxazole] | 0.08 (≈ 0.254 µM)
11 | Cc1cc(CCCCCOc2ccc(C3=NCCO3)cc2Cl)no1 [Example 37, 3-{5-[2-Chloro-4-(4,5-dihydro-2-oxazolyl)phenoxy]pentyl}-5-methylisoxazole] | 0.12 (≈ 0.344 µM)
12 | Cc1cc(CCCCOc2ccc(C3=NC(C)(C)CO3)cc2)on1 [Example 67, 5-{4-[4-(4,5-Dihydro-4,4-dimethyl-2-oxazolyl)phenoxy]butyl}-3-methylisoxazole] | 2.6 (≈ 7.92 µM)
13 | Cc1cc(CCCCCCCOc2ccc(C3=NCCO3)cc2C=O)on1 [Example 69, 5-{7-[4-(4,5-Dihydro-2-oxazolyl)-2-formylphenoxy]heptyl}-3-methylisoxazole] | 0.5 (≈ 1.35 µM)
14 | Cc1cc(CCCCCOc2ccc(C3=NCCO3)cc2C(C)C)on1 [Example 71, 5-{5-[4-(4,5-Dihydro-2-oxazolyl)-2-(1-methylethyl)phenoxy]pentyl}-3-methylisoxazole] | 0.075 (≈ 0.21 µM)
15 | Cc1cc(CCCCCOc2c(Cl)cc(C3=NCCO3)cc2C(C)(C)C)on1 [Example 78, 5-{5-[2-Chloro-4-(4,5-dihydro-2-oxazolyl)-6-(1,1-dimethylethyl)phenoxy]pentyl}-3-methylisoxazole] | 3.1 (≈ 7.66 µM)
16 | Cc1cc(CCCCCOc2c(C(C)(C)C)cc(C3=NCCO3)cc2C(C)(C)C)on1 [Example 81, 5-{5-[4-(4,5-Dihydro-2-oxazolyl)-2,6-bis(1,1-dimethylethyl)phenoxy]pentyl}-3-methylisoxazole] | 2.1 (≈ 4.92 µM)
17 | Cc1cc(CCCCCOc2ccc(C3=NCCO3)cc2CO)on1 [Example 85, 5-{5-[4-(4,5-Dihydro-2-oxazolyl)-2-hydroxymethylphenoxy]pentyl}-3-methylisoxazole] | 2.46 (≈ 7.14 µM)
18 | Cc1cc(CCCCCCCOc2ccc(C3=NC[C@@H](C)O3)cc2)on1 [Example 123, (R)-5-{7-[4-(4,5-Dihydro-5-methyl-2-oxazolyl)phenoxy]heptyl}-3-methylisoxazole] | 0.4 (≈ 1.12 µM)

System: echovirus-9
Test: in vivo efficacy in echovirus-9 mouse infection model
Conditions: mice, twice a day dosing with 12.5 mg/kg

Row | Structure (SMILES) | effect against echovirus-9 induced paralysis
19 | Cc1cc(CCCCCOc2c(Cl)cc(C3=NCCO3)cc2Cl)on1 [5-{5-[2,6-Dichloro-4-(4,5-dihydro-2-oxazolyl)phenoxyl]-pentyl}-3-methylisoxazole] | effective

Reference: US4843087A (priority 1986, dated 1989)
